In a compilation of properties of binary mixtures (doi:10.1016/j.jct.2016.03.014):
The densities may have been worked out from excess volumes.

Assay: xn = mol fraction of the nth substance listed
Conditions: 101.3 kPa

Q: With CC[n+]1ccn(C)c1.O=S(=O)([O-])C(F)(F)F + CCCCCO as the compound, how does the mass density (298.15 K, x2 = 0) read?
A: 1382.8 kg/m3

Q: And the mass density (298.15 K, x2 = 0.0507)?
A: 1365.7 kg/m3

Q: And the mass density (298.15 K, x2 = 0.108)?
A: 1345.5 kg/m3

Q: And the mass density (298.15 K, x2 = 0.2365)?
A: 1296.4 kg/m3

Q: And the mass density (298.15 K, x2 = 0.3297)?
A: 1256.9 kg/m3

Q: And the mass density (298.15 K, x2 = 0.4357)?
A: 1207.4 kg/m3

Q: And the mass density (298.15 K, x2 = 0.5702)?
A: 1136 kg/m3

Q: And the mass density (298.15 K, x2 = 0.5941)?
A: 1122.2 kg/m3

Q: And the mass density (298.15 K, x2 = 0.7208)?
A: 1041.8 kg/m3

Q: What about the mass density (298.15 K, x2 = 0.8515) of the same compound?
A: 944.4 kg/m3

Q: What about the mass density (298.15 K, x2 = 0.8998) of the same compound?
A: 903.9 kg/m3

Q: What about the mass density (298.15 K, x2 = 0.9479) of the same compound?
A: 860.9 kg/m3

Q: What about the mass density (308.15 K, x2 = 0) of the same compound?
A: 1374.4 kg/m3

Q: And the mass density (308.15 K, x2 = 0.0507)?
A: 1357.4 kg/m3

Q: What about the mass density (308.15 K, x2 = 0.108) of the same compound?
A: 1337.2 kg/m3

Q: What about the mass density (308.15 K, x2 = 0.1716) of the same compound?
A: 1313.7 kg/m3

Q: And the mass density (308.15 K, x2 = 0.3297)?
A: 1248.7 kg/m3

Q: And the mass density (308.15 K, x2 = 0.5702)?
A: 1128 kg/m3

Q: What about the mass density (308.15 K, x2 = 0.5941) of the same compound?
A: 1114.1 kg/m3

Q: And the mass density (308.15 K, x2 = 0.7208)?
A: 1033.9 kg/m3

Q: And the mass density (308.15 K, x2 = 0.8085)?
A: 970.5 kg/m3

Q: What about the mass density (308.15 K, x2 = 0.8515) of the same compound?
A: 936.7 kg/m3

Q: And the mass density (308.15 K, x2 = 0.8998)?
A: 896.3 kg/m3

Q: What about the mass density (308.15 K, x2 = 0.9479) of the same compound?
A: 853.4 kg/m3

Q: And the mass density (318.15 K, x2 = 0.108)?
A: 1329 kg/m3

Q: And the mass density (318.15 K, x2 = 0.1716)?
A: 1305.5 kg/m3

Q: And the mass density (318.15 K, x2 = 0.2365)?
A: 1280 kg/m3

Q: And the mass density (318.15 K, x2 = 0.3297)?
A: 1240.6 kg/m3

Q: And the mass density (318.15 K, x2 = 0.4357)?
A: 1191.3 kg/m3

Q: What about the mass density (318.15 K, x2 = 0.5702) of the same compound?
A: 1120 kg/m3

Q: What about the mass density (318.15 K, x2 = 0.5941) of the same compound?
A: 1106.2 kg/m3

Q: And the mass density (318.15 K, x2 = 0.8085)?
A: 962.7 kg/m3

Q: And the mass density (318.15 K, x2 = 0.8515)?
A: 928.9 kg/m3

Q: And the mass density (318.15 K, x2 = 0.8998)?
A: 888.6 kg/m3

Q: What about the mass density (328.15 K, x2 = 0) of the same compound?
A: 1357.9 kg/m3

Q: What about the mass density (328.15 K, x2 = 0.108) of the same compound?
A: 1320.8 kg/m3

Q: And the mass density (328.15 K, x2 = 0.2365)?
A: 1271.9 kg/m3

Q: And the mass density (328.15 K, x2 = 0.3297)?
A: 1232.5 kg/m3

Q: And the mass density (328.15 K, x2 = 0.4357)?
A: 1183.2 kg/m3

Q: What about the mass density (328.15 K, x2 = 0.5702) of the same compound?
A: 1112 kg/m3

Q: And the mass density (328.15 K, x2 = 0.5941)?
A: 1098.2 kg/m3

Q: And the mass density (328.15 K, x2 = 0.8085)?
A: 954.8 kg/m3

Q: What about the mass density (328.15 K, x2 = 0.8515) of the same compound?
A: 921.1 kg/m3

Q: What about the mass density (328.15 K, x2 = 0.8998) of the same compound?
A: 880.8 kg/m3

Q: And the mass density (328.15 K, x2 = 0.9479)?
A: 838 kg/m3

Q: Which results are given for CCCCCO + CC[n+]1ccn(C)c1.O=S(=O)([O-])C(F)(F)F?
A: mass density (298.15 K, x1 = 1): 811.1 kg/m3; mass density (308.15 K, x1 = 1): 803.7 kg/m3; mass density (328.15 K, x1 = 1): 788.4 kg/m3
